1 protein from ChEMBL document CHEMBL1629563, “Pharmacokinetic and safety evaluation of BILR 355, a second-generation nonnucleoside reverse transcriptase inhibitor, in healthy volunteers” (Antimicrob Agents Chemother, 2008) can be followed below.

Substrate in the series: CCN1c2ncc(CCOc3cc[n+]([O-])c4ccccc34)cc2C(=O)N(C)c2cccnc21
The experiment in a line: Activity of human CYP3A4. Format: ADME.

B1: Cytochrome P450 3A4 (Homo sapiens) (protein)
chain: MALIPDLAMETWLLLAVSLVLLYLYGTHSHGLFKKLGIPGPTPLPFLGNILSYHKGFCMFDMECHKKYGKVWGFYDGQQPVLAITDPDMIKTVLVKECYSVFTNRRPFGPVGFMKSAISIAEDEEWKRLRSLLSPTFTSGKLKEMVPIIAQYGDVLVRNLRREAETGKPVTLKDVFGAYSMDVITSTSFGVNIDSLNNPQDPFVENTKKLLRFDFLDPFFLSITVFPFLIPILEVLNICVFPREVTNFLRKSVKRMKESRLEDTQKHRVDFLQLMIDSQNSKETESHKALSDLELVAQSIIFIFAGYETTSSVLSFIMYELATHPDVQQKLQEEIDAVLPNKAPPTYDTVLQMEYLDMVVNETLRLFPIAMRLERVCKKDVEINGMFIPKGVVVMIPSYALHRDPKYWTEPEKFLPERFSKKNKDNIDPYIYTPFGSGPRNCIGMRFALMNMKLALIRVLQNFSFKPCKETQIPLKLSLGGLLQPEKPVVLKVESRDGTVSGA
For the protein B1, the Km (as a rule, the substrate concentration at which the rate is half of its maximum) amounted to 0.854 µM.
